Reference: the supplement of paper PMC11417369
Some of the results follow.

Tested on: PfHDP1 homeodomain (GST-tagged)
Assay: gcPBM binding intensity (ln(normalized median fluorescence intensity)); higher = stronger DNA binding
Summary of the method: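 After 1 h on an Agilent 4 × 180k array of primer-extended double-stranded 36-bp intergenic genomic probes and negative controls, bound GST-tagged P. falciparum DNA-binding domains were detected with Alexa488 anti-GST antibody and scanned at 488 nm. The domains had been expressed in E. coli, and binding took place in 1× PBS with 1% milk, 0.2 mg/ml BSA, 0.5% salmon testes DNA and 0.03% Triton X-100. Binding intensity is the highest Masliner-normalised natural-log median intensity across replicate spots of either probe orientation.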

| Sequence | gcPBM binding intensity (ln) |
| --- | --- |
| ATACAACTAATAAGTAGTACAATATACATATATTAT [XGTACX_site7086] | 6.52 |
| AAATAATATATTCTATATAATAAATTATAAATATAA [GTGCAC_negctrl_site558] | 5.77 |
| ATATATATATATATATATATATATATATATTATATA [XGTACX_negctrl_site48] | 9.21 |
| ATATGACTGTTCATTTGTACGTATAATTATATACGT [XGTACX_site3372] | 6.62 |
| AAAAAAAATGAAAGGTGTACACATACAAACATAGAA [XGTACX_site3517] | 7.69 |
| TTTTTTTTTTTTTTTTATTTATATATATATATATAT [CACACA_negctrl_site582] | 8.87 |
| GTTTTATAAAAAGGCGCACACATATACATAAATATA [CACACA_site1864] | 7.08 |
| AAAAAGAAAATATATACACACCAAAAAAAAAAAAAA [CACACA_site5698] | 6.17 |
| GATAAAGTACTTTATACACACAAATATTTATATATA [CACACA_site3974] | 6.7 |
| TAAATACAAAAATGCACACGAAAAGTAATATATATA [CACACA_site6151] | 9.62 |
| TCAAATTACTAAAATACACACATATTATAGATATAT [CACACA_site7233] | 6.47 |
| TGTATATATAATAAAACACACATTTTTAATGTGCTC [CACACA_site1437] | 6.3 |
| GAACTTTACAACCCAACACACAAAAAAGAAAAGAAA [CACACA_site1717] | 6.33 |
| ATATGTTCATTTAAAAGTACTTAATATAACATTTTT [XGTACX_site3332] | 6.45 |
| AATAGGAAAAGAAAAGCACACACATAAATAAATATA [CACACA_site8062] | 6.7 |
| ATTGGTGTATGTTTATGTACTTATCACAATTATGAA [XGTACX_site7055] | 6.72 |
| TAATATGACATAAGGGGTACTATATATATATATATT [XGTACX_site386] | 6.68 |
| AAACATTTACTATATTGTACTTAAGATCTTATCGTA [XGTACX_site3919] | 6.2 |
| TATTTTAACATGTTTTCAAAAATAAAACATATAAAT [CACACA_negctrl_site1598] | 6.03 |
| ATAATAAGCAGACACACACACACAAAAAAAAAAAAA [CACACA_site6477] | 6.46 |
| ATATAAATTTAATACACACCCAAAAAAAAAAAAAAA [CACACA_site3750] | 6.31 |
| TAAATAAATACATACACACACATACAGATATATATA [CACACA_site5690] | 6.89 |
| TATGCTTTGATGAAGACACACATATAGAAGCGTATT [CACACA_site1925] | 6.21 |

| Sequence | gcPBM binding intensity (ln) |
| --- | --- |
| CGCCCACAGATATATACACACATATATAAATAAATA [CACACA_site6877] | 7.03 |
| TACTTTTATAAAAATTGTACAAAAAAAAAAAAAAAA [XGTACX_site2266] | 6.37 |
| TATGTTATAAAATATATATTATAATATGTATATATA [XGTACX_negctrl_site233] | 6.26 |
| AAAACTATTTCTTTCAGTACATATTTGGACTTATAT [XGTACX_site4977] | 6.12 |
| AAACGATTAATGTGTACACACATAGTTATAAACATA [CACACA_site7073] | 6.67 |
| TTACACATGTATTTGGTGCATGTTGTTAACAAAATA | 9.83 |
| ATTAAAACACAATATTCACACATGTATATTATATAT [CACACA_site5191] | 6.61 |
| TTAACATACACTCTAGTGCATATATATAACAAAATA [GTGCAC_site9724] | 9.09 |
| ATCATATTTATATTGGTGCATTATGCATGAAATTTA [GTGCAC_site9571] | 10.6 |
| AATTTAAATCTTCAAAGTACTAAAAAAAAAAATAAT [XGTACX_site8566] | 6.62 |
| TTTTTTAAATGTCATTGTACATAATTCAATATATAA [XGTACX_site5] | 6.62 |
| TGACTTTTTTTATGTTGTACTTATTATAAAAAAAAT [XGTACX_site7736] | 6.99 |
| AGCTAATATATCTTATATTCATATAAAAAAATATAT [CACACA_negctrl_site1786] | 6.26 |
| TTATAAAATATTTTTTGTACACATAATAGTAAGACT [XGTACX_site933] | 6.64 |
| CACCCACACCAACACACACACATATATAATATATAT [CACACA_site595] | 7.43 |
| CCATAATATTATAGACGTACGAATATATATAAAAGA [XGTACX_site7295] | 7.24 |
| GATTATTTTATAAGTACACACATTTATCTATAATAA [CACACA_site7256] | 6.39 |
| AATACATGCTTATTTTAACACACAAATGGTAGTAAT [CACACA_site8154] | 6.41 |
| AACCATGTTAACAACGCATGTATATCTATGGGTTTA [TGCATGCA_site419] | 6.08 |
| CTTATATTTAGACACACACACAATAAAATGAAAAAA [CACACA_site1031] | 7.11 |
| GATTAATACACATTCTTCCGACATAATAAGAAAAAG [GTGCAC_negctrl_site7] | 6.77 |
| TTTTTTTTTTTTTTATGTACTAAAAAATGAAAAATA [XGTACX_site6812] | 6.33 |
| AAATACTTAACATTGGTGCATATTTGTAAAATTATT [GTGCAC_site9515] | 10.2 |

| Sequence | gcPBM binding intensity (ln) |
| --- | --- |
| TTATTTATTTATTGGGTGCACTTGATTTAAATATGC | 9.24 |
| AAAAAAAAAAAAAAAACACACACATATATATAATAT [CACACA_site9038] | 6.63 |
| TTTTGGCTTCTAATATTATACAAAATGGTAAGGAAA [TGCATGCA_negctrl_site169] | 6.55 |
| ATGCAATAATAATATTGTACGCATATATTTTTTACT [XGTACX_site3384] | 6.21 |
| AGAATACAAAATTGCACACATATTGTGAAAATGTTA [CACACA_site4005] | 10 |
| ATTATAATAATGTGATGTACATTAATTGTCTTCCTA [XGTACX_site5404] | 6.5 |
| AATACATCATTAAAATGTACATATATATATACATTA [XGTACX_site132] | 6.22 |
| GAAATAAGGGTTATTTCACACATTGCATGTATTTTC [CACACA_site5752] | 6.3 |
| ATATATATTAATTTTGTGCACAAATGGAAATGTTTG [GTGCAC_site9971] | 10.9 |
| TGTGTTATATATAAAGAAAAAAAAAAAAAATATATA [CACACA_negctrl_site567] | 6.39 |
| AAAAATTTAATTATTTGTACATAAAATACATTTCTG [XGTACX_site791] | 6.18 |
| TATTCCTATATAAAGACACACATATGTAACTACGAT [CACACA_site4139] | 6.77 |
| TATAGATAACAAAAGTGTACATGTTGTATACACATG [XGTACX_site3471] | 6.82 |
| TATATATATAAACACACACACACACCCAAGCGTAGC [CACACA_site4210] | 7.61 |
| AACAACTATTACTGCACACATTCTTACACTATATAA [CACACA_site654] | 9.28 |
| TGTACAAATTATACTTCGAACGAAGGGCATACATAT [XGTACX_negctrl_site37] | 6.64 |
| TATTTGTGTATTTTTACACACATTAATATATTTATA [CACACA_site7562] | 6.41 |
| TATATATATATTATATGTACACATTTGTGAATTATT [XGTACX_site5848] | 8.34 |
| AGGAGACTTAAAAAAAGTACAAAAAAAAAAAAAAGC [XGTACX_site1576] | 6.38 |
| ACAGAAAAAAAACACACACACATAATATACATACAT [CACACA_site1932] | 6.86 |
| TATACATATATAAATGCATGTTGATATTAATAGTTA [TGCATGCA_site639] | 6.53 |
| TATTTTTTTTTCTTTTTATATATAATAATCTTCATT [GTGCAC_negctrl_site80] | 6.62 |
| CGTTAAAGGGAATGTATACACACGTTTCTCTATGTT [CACACA_site1198] | 6.65 |

| Sequence | gcPBM binding intensity (ln) |
| --- | --- |
| GTATATATGTATATATGTACATATATACATTTTGTT [XGTACX_site7320] | 6.85 |
| TATATATTTAACAATCGTACATATTTACAAATATAA [XGTACX_site2131] | 6.31 |
| TTATAACAACTGGAATGATTAACAATAAATATTAAA [CACACA_negctrl_site1723] | 6.09 |
| TTAAATAATATTAAATGTACATATTATTATGATATA [XGTACX_site6189] | 6.13 |
| ATGTTTGTCTATAGCTGTACCTATTTATAAAACGTA [XGTACX_site7157] | 6.67 |
| TCATATTATAATGTGAGTACATATAATAAATAAGTT [XGTACX_site2470] | 6.48 |
| GTAAAAATTTTAAATACATGCAAGCGATTAATATGA [TGCATGCA_site80] | 6.8 |
| TTAATATGATATATATATATATATATATATATATAT [CACACA_negctrl_site683] | 9.37 |
| ATTTAGAAAAATAAAACACACATATAGATGTAAATA [CACACA_site7853] | 6.38 |
| ATATTTCTGTCAAGCACACATAATATTAAAATATGT [CACACA_site4330] | 6.43 |
| TTTTATACATATTTTACACACTAAAATATACATATA [CACACA_site324] | 6.72 |
| GAAGTATTTATTTATGCATGCAAATATACAAAAAAA [TGCATGCA_site975] | 6.85 |
| ACATATATTTAAAAATGTACTTACATATATTTTTTA [XGTACX_site6050] | 5.85 |
| ATAAAATAAATATTTTGTTATTTATTTAATCTAATA [XGTACX_negctrl_site404] | 5.98 |
| TTTTTTTTTTCTGAAAGTACTAATTTCCTGGAGGAA [XGTACX_site759] | 5.78 |
| TTATTATTATTACTAGTGCATTAATTATATATGTAA | 9.02 |
| TAAATATTTTTAGATGCATGCAATAATTACCCAAAG [TGCATGCA_site636] | 7 |
| TTATGTTGTAAATGCACACATACATAAACTCAGTTT [CACACA_site5639] | 10.5 |
| ACCTCATAATATTTAACACACAAAATTAAATGTATG [CACACA_site6898] | 6.52 |
| CCTGTAAATAAATATAAATACATATTTCTAATATAT [GTGCAC_negctrl_site21] | 6.52 |
